In all, about 52,000 compounds went through this assay and about 4,300 (8.3%) were called active. Cut-off read from the data, not from the text of the source: active = survival mostly below about 52% (no sharp cut-off); inactive = mostly above about 56%. This is one part of the list.

The subject of the experiment is DeltatarO mutant. Description: growth inhibition of S. aureus wild type versus tarO mutant, primary screen, teichoic acid synthesis inhibitors, RN4220, OD600 (AID 463173). The settings on record: OD600, 18 h, active compounds read low, screened at 18.75 µg/mL (by protocol).
On to `Cc1ccc(Cl)cc1NC(=O)C(NS(=O)(=O)c1cccc2nsnc12)c1ccccc1` (stereo unspecified), for which the survival is inactive: 68%.

Take `CC(C)(C)c1ccc(CSc2nnc(-c3ccco3)n2-c2ccccc2)cc1`: the survival is inactive: 96%.

Take `COc1ccc(NC(=O)C2CCCN(S(=O)(=O)c3ccc(Cl)cc3)C2)cc1` (stereo unspecified): the survival is inactive: 76%.

Take `COc1cc(Nc2nc(SCc3cccc(Cl)c3)nc3ccccc23)cc(OC)c1`: the survival was active: 37%.

Take `Cc1nc2c(c(C)nn2-c2ccccc2)c(C)c1CCC(=O)Nc1ccc(F)cc1`: the survival is inactive: 92%.

As to `Cc1ccc2nc(-c3ccc(NC(=O)C(F)(F)F)cc3)sc2c1`, the survival was inactive: 98%.

Take `Fc1ccc(Nc2c3c(nc4nncn24)CCC3)cc1`: the survival is inactive: 74%.

As to `Cc1cc(C)n(-c2nnc(Nc3ccc(C(C)C)cc3)c3ccccc23)n1`, the survival is inactive: 80%.

Consider `COc1cccc(C(=O)NC(=O)Nc2ccc(-n3nc(C(F)(F)F)cc3C(F)(F)F)cc2)c1`, for which the survival is inactive: 81%.

With `COc1ccc(CNCc2ccc3c(c2)n(C)c(=O)n3C)cc1`, the survival was inactive: 84%.

`CC(=O)c1ccc(NC(=O)C2=CC(c3cccs3)=NS(=O)(=O)N2C)cc1`: the survival is inactive: 95%.

For `N#Cc1c(-n2ncnc2-c2ccc(F)cc2)sc2c1CCCCC2`, the survival is active: -4%.

Take `CCCSc1ncc(Cl)c(C(=O)Nc2sc3c(c2C(=O)OC)CCCC3)n1`: the survival was inactive: 53%.

As to `O=C(CSCc1cnn(-c2ccccc2)c1-n1cccc1)NCc1cccc(Cl)c1`, the survival was inactive: 55%.

Consider `O=C(C1CCN(S(=O)(=O)c2ccc(Br)s2)CC1)N1CCN(c2cccc(C(F)(F)F)c2)CC1`, for which the survival is inactive: 67%.

For `Cc1cc(C)c2c(CC(=O)N(Cc3ccc(Cl)cc3)Cc3ccco3)coc2c1`, the survival is inactive: 57%.

`O=C(Nc1ccccc1)c1nc[nH]c1C(=O)O`: the survival is inactive: 64%.

For the compound `CCOC(=O)CSc1nc2cc3c(cc2c(=O)n1Cc1ccc(C(=O)NCCc2ccc(OC)c(OC)c2)cc1)OCO3`, the survival is inactive: 83%.

In the case of `COc1cc(OC)c(N(C)C(=O)c2c(C)oc3ncn(CC(C)C)c(=O)c23)cc1Cl`, the survival was inactive: 83%.

`CCSc1nnc2nc(C)cc(C)n12`: the survival was inactive: 90%.

Consider `Cc1c(-c2ccccc2)nc2c(Cl)cccc2c1C(=O)OCC(=O)c1ccc(F)cc1`, for which the survival was inactive: 75%.

As for `Cc1ccc(NC(=O)Cn2cc(S(=O)(=O)Cc3ccc(F)cc3)c3ccccc32)cc1Cl`, the survival is inactive: 84%.

Take `COc1ccc(-c2cc(C(F)(F)F)nc(SCC(=O)NCCc3ccccc3)n2)cc1`: the survival was inactive: 121%.

Turning to `CCOc1ccccc1C(=O)N(Cc1sccc1C)C1CCS(=O)(=O)C1` (stereo unspecified), the survival is inactive: 86%.

On to `CCc1ccc(-n2c(=O)c3c4c(sc3n(CC(=O)c3ccc(Br)cc3)c2=O)CCC4)cc1`, for which the survival was inactive: 127%.

`Cc1ccc(S(=O)(=O)Nc2ccc3nc(-c4ccc(F)cc4)oc3c2)cc1`: the survival is active: 11%.

In the case of `CC(C)(C)NC(=O)c1oc2ccccc2c1NC(=O)c1ccccc1F`, the survival is inactive: 69%.

With `COc1cc(NC(=O)Cn2c(=O)ccc3cc(S(=O)(=O)N4CCCC4)ccc32)cc(OC)c1`, the survival is inactive: 93%.

As for `CCC(C)NC(=O)CCC(=O)N1Cc2ccccc2Oc2ncccc21` (stereo unspecified), the survival was inactive: 117%.

With `CC1=C(C(=O)N2CCN(c3ccccc3)CC2)C2(CCCCC2)OC1=O`, the survival was inactive: 86%.

Turning to `COc1ccc(CNC(=O)c2cc3ccccn3n2)cc1OC`, the survival is inactive: 79%.

In the case of `Cc1ccc(-n2nc(C)c(C(=O)O)c2-n2cccc2)cc1`, the survival is inactive: 102%.

For `Cc1ccc(CNC(=O)c2c(C)oc3ncnc(N4CCOCC4)c23)cc1`, the survival is active: 17%.

Take `CCOC(=O)c1c(C)[nH]c(C)c1S(=O)(=O)N(C)CC(=O)Nc1ccc(CC)cc1`: the survival was inactive: 97%.

On to `Cc1cccc(N2CCN(C(=O)C3CCN(c4ncnc5c4nc4n5CCCCC4)CC3)CC2C)c1` (stereo unspecified), for which the survival was active: 6%.

As for `Cn1c(=O)c2c(nc(Oc3ccccc3Cl)n2Cc2ccc(C#N)cc2)n(C)c1=O`, the survival is inactive: 87%.

Regarding `COc1cc(Nc2ncc3c(n2)CCN(Cc2cccc(C)c2)C3)cc(OC)c1`, the survival is inactive: 83%.

In the case of `Cc1oc2c(C)c3oc(=O)c(CC(=O)N4CCCCC4)c(C)c3cc2c1C`, the survival was inactive: 75%.

Consider `CCCN(CCC)C(=O)C(Cc1ccccc1)NS(=O)(=O)c1ccc2c(c1)c(=O)n(C)c(=O)n2C` (stereo unspecified), for which the survival was inactive: 84%.

For `Cc1cccc(C)c1NC(=O)Cn1nnc(C(=O)NCc2ccc(F)cc2)c1N`, the survival was inactive: 101%.

As to `Cc1ccccc1CCNC(=O)C1CCN(S(=O)(=O)c2ccc3c(ccn3C)c2)CC1`, the survival was inactive: 91%.

As to `C=CCNc1nnc(Cl)c2ccccc12`, the survival was inactive: 103%.

For `Cc1c(C(=O)NCCc2ccccc2)oc2ccccc12`, the survival is inactive: 95%.

`CCCc1nc(SCC(=O)N2CCCC2)c2ccccc2n1`: the survival is inactive: 80%.

For `O=C(CCn1nnc(-c2cccs2)n1)NCc1ccccc1Cl`, the survival was inactive: 103%.

On to `CCOc1ccc(NC(=O)CSc2nnc(C)n2CC2CCCO2)cc1` (stereo unspecified), for which the survival was inactive: 80%.

As for `O=C(NCC1(c2ccccc2)CCCC1)C(=O)Nc1cccc(Br)c1`, the survival was inactive: 78%.

With `CCc1nn(CC(=O)Nc2cccc(C(C)=O)c2)c(=O)c2cc3sccc3n12`, the survival was inactive: 63%.

Take `Cc1cccc(NC(=O)C2CCN(c3nnc(C)c4c(C)n(-c5ccccc5)nc34)CC2)c1C`: the survival is inactive: 78%.

For `O=C(NCc1ccccc1)C(=O)NCC(c1ccco1)S(=O)(=O)c1cccs1` (stereo unspecified), the survival was inactive: 96%.

Regarding `Cc1ccc(Cl)cc1NC(=O)C1CCCN(c2cnccn2)C1` (stereo unspecified), the survival was inactive: 88%.

With `CN(C)c1ccc(C(CNS(=O)(=O)c2ccc(Cl)cc2)N2CCOCC2)cc1` (stereo unspecified), the survival is active: 37%.

For the compound `CN(c1ccccc1C(=O)O)S(=O)(=O)c1ccc2[nH]c(=O)oc2c1`, the survival is inactive: 96%.

Turning to `CCOC(=O)c1ccccc1NC(=O)Cn1c(=O)n(Cc2nc(C)no2)c(=O)c2ccccc21`, the survival was inactive: 83%.

For `O=C(CCn1c(=O)c2ccccc2n(Cc2cccc(Cl)c2)c1=O)NCCc1ccccc1`, the survival is inactive: 71%.

In the case of `CCCSc1ncc(Cl)c(C(=O)Nc2nc3ccc(C)cc3s2)n1`, the survival was active: 49%.

As for `CC1(C)CC(n2c(SCC#N)nc3c(c2=O)C2(CCCC2)Cc2ccccc2-3)CCO1` (stereo unspecified), the survival is inactive: 100%.

With `Cc1cc(C)c2c(CC(=O)Nc3ccccc3C(F)(F)F)coc2c1`, the survival is inactive: 72%.

`CCc1ccccc1NC(=O)Cn1nc(C(F)(F)F)c2c1CCC2`: the survival is inactive: 75%.

For `Cc1ccc(/C=C(\C#N)C(=O)Nc2cccc(Br)c2)o1`, the survival was inactive: 71%.

Regarding `Cc1ccc(Cl)cc1N1CCN(C(=O)c2cc3c(=O)oc4ccccc4c3s2)CC1`, the survival was inactive: 55%.

`CC(C)CNC(=O)c1ccccc1NC(=O)c1ccco1`: the survival is inactive: 105%.

For the compound `CCN1CCN(C(c2ccccc2Cl)c2c(O)cc(C)n(CCOC)c2=O)CC1` (stereo unspecified), the survival was inactive: 89%.

As for `Cc1oc(-c2ccc(Cl)cc2)nc1CN1CCCC(C(=O)NCc2ccccc2)C1` (stereo unspecified), the survival is inactive: 93%.

For `Cc1ccc(-n2c(COCC(=O)O)nc3cccnc32)cc1`, the survival is inactive: 86%.

As to `COc1cccc(C(=O)Nc2nc(-c3ccc(Br)cc3)ns2)c1`, the survival was inactive: 65%.

In the case of `CCOC(=O)Cc1ccc(NC(=O)N(Cc2ccc(CC)cc2)Cc2cn[nH]c2-c2ccc(OC)cc2)cc1`, the survival was inactive: 62%.

For the compound `Cc1nc2ccc(S(=O)(=O)NCC(=O)Nc3ccc(F)cc3F)cc2s1`, the survival was inactive: 120%.

As for `Cc1ccccc1OCCn1c(CCNC(=O)C2CCCCC2)nc2ccccc21`, the survival was inactive: 77%.

Consider `Cc1ccc(S(=O)(=O)N2CCN(Cc3nc4ccc(C)cc4o3)CC2)c(C)c1`, for which the survival was inactive: 99%.

On to `Cc1ccc(-n2c(SCC(=O)N3CCCc4ccccc43)nc3c([nH]c4ccccc43)c2=O)cc1`, for which the survival was inactive: 73%.

Turning to `CCc1ccc(C2=CC(c3c(F)cccc3Cl)n3c(nc4ccccc43)N2)cc1` (stereo unspecified), the survival was inactive: 86%.

On to `CCc1ccc(OCCn2c(C3CC(=O)N(Cc4ccc(F)cc4)C3)nc3ccccc32)cc1` (stereo unspecified), for which the survival was active: 3%.

Turning to `CC(C)(C)C(=O)Nc1ccccc1C(=O)OCc1cc(=O)n2ccsc2n1`, the survival is inactive: 54%.

Turning to `COCCCNC(=O)CSC1=Nc2ccccc2C2=NC(CCC(=O)NCc3ccc(OC)cc3)C(=O)N12` (stereo unspecified), the survival is inactive: 71%.

As to `O=c1[nH]cnc(O)c1Cc1c(O)nc[nH]c1=O`, the survival was inactive: 99%.

For the compound `Nc1nn(-c2ccccc2)nc1C(=O)OCc1ccccc1`, the survival was active: 58%.

For the compound `CC1CCCN(CCCNC(=O)Cn2ncc3c([nH]c4ccccc43)c2=O)C1` (stereo unspecified), the survival was inactive: 94%.

As for `O=C(COC(=O)C1CCC(N2C(=O)C3C4C=CC(C4)C3C2=O)CC1)c1ccc(F)cc1` (stereo unspecified), the survival was inactive: 60%.

`COC(=O)c1scc(-c2ccc(C)cc2)c1S(=O)(=O)Nc1cc(C)ccc1OC`: the survival is inactive: 75%.

Turning to `Cc1cccc(NC(=O)Cn2c(=O)n(CCCCCC(=O)NCc3ccc4c(c3)OCO4)c(=O)c3sccc32)c1`, the survival was inactive: 76%.

For the compound `Cc1ccc(NC(=O)c2cnc3sc(N4CCOCC4)nn3c2=O)cc1N(C)C`, the survival is inactive: 80%.

As to `O=C(c1ccc2c(c1)N(Cc1ccccc1)C(=O)c1ccccc1S2(=O)=O)N1CCN(Cc2ccccc2)CC1`, the survival was inactive: 76%.

As to `COc1ccccc1C(=O)Nc1sc(Nc2ccccc2)nc1C(N)=O`, the survival was inactive: 124%.

On to `COc1ccc(Nc2nc(C)nc(N)c2S(=O)(=O)c2ccccc2)cc1`, for which the survival is inactive: 84%.

On to `Cc1ccc(-c2cn3ccc(C)cc3n2)cc1`, for which the survival was active: 22%.

For `CC(C)CCn1c(/C=C/c2ccccc2)nc2ccccc21`, the survival is active: -1%.

For `Cc1cc(C)cc(NC(=O)CSc2nc3nccnc3c(=O)n2CCc2c[nH]c3ccccc23)c1`, the survival was active: 38%.

With `CCOC(=O)Cn1c(=O)n(C2CCCCC2)c2nc(-c3c(F)cccc3Cl)nc(C(N)=O)c21`, the survival was inactive: 89%.

`CC(=O)c1cccc(NC(=O)CN(c2cc(C)cc(C)c2)S(=O)(=O)c2c(C)noc2C)c1`: the survival was inactive: 68%.

As for `COCc1nnc(NC(=O)C2CC(=O)N(c3ccc(C)cc3)C2)s1` (stereo unspecified), the survival is inactive: 106%.
